Test results: PubChem BioAssay AID686978 (National Center for Advancing Translational Sciences (NCATS), 2013)
Several values for one entry are separate records, joined by “and”; a condition that tells them apart may be missing. Equal values may be shown once. The campaign covered roughly 420,000 compounds. About 64,000 (15%) were called active. Inconclusive means that the source gave no clear call. Such entries were picked first, then a sample of the others. The call rests on the fitted dose curve; in most records, active means well fitted inhibition curve with a large enough effect; inconclusive means small, poorly fitted or top-dose-only effect; inactive means flat fitted curve, though single readings scatter. No potency is given beside an inconclusive call; the fits are too rough.

Test: qHTS for Inhibitors of human tyrosyl-DNA phosphodiesterase 1 (TDP1): qHTS in cells in absence of CPT; further: nearly all actives have a fitted effect of over 55% in size
Conditions: DT40 Tdp1-/- hTDP1 cells, no CPT, ATP luminescence, 48 h; activity change, negative = growth inhibition: at 46.2 µM (top of the series) unless noted
In short: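 Luminescent ATP content (CellTiter-Glo) served as the growth readout. Knockout chicken DT40 cells expressing human TDP1 were exposed to compounds without camptothecin for a minimum 48 hr at 37 °C.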
On the % scale 0 is the no-effect control and ±100 the full control effect; potency means the concentration at half of the fitted maximal effect; tags describe the fitted curve by direction and shape.

| Compound | Potency | activity change, negative = growth inhibition |
| --- | --- | --- |
| CC1(C)Cc2cccc(OCC(=O)N3CCN(S(=O)(=O)c4ccc(F)cc4)CC3)c2O1 | inconclusive [inhibitor, partial curve, poor fit] |  |
| CC1CN(C(=O)Nc2ccc(C(=O)NCCc3ccccc3Cl)cc2)c2ccccc2S1 (stereo unspecified) | active: 20.6 µM |  |
| CC(C)c1cc(N2CCN(C(=O)c3ccco3)CC2)n2c(nc3ccccc32)c1C#N | active: 20.6 µM |  |
| COc1nnc(-c2ccc(N3CCCCC3)c(NC(=O)C3CCCCC3)c2)c2ccccc12 | inconclusive [inhibitor, partial curve] |  |
| NS(=O)(=O)c1ccc(CNC(=O)c2csc3c2CCCC3)cc1 |  | inactive: -28.9% |
| O=C(Nc1ccc2c(c1)OCO2)C1CCN(Cc2cc3c(cc2O)OCO3)CC1 | inconclusive [inhibitor, partial curve, poor fit] |  |
| CCn1cc(Br)c(C(=O)N(C)Cc2ccccc2)n1 |  | inconclusive: -30.4% [inhibitor] |
| CCOC(=O)N1CCN(C(=O)C2CCN(S(=O)(=O)N(CC)CC)CC2)CC1 |  | inactive: -9.99% |
| CCOC(=O)c1c(C)[nH]c(N=Nc2ccc(C)cc2C)c1C | inconclusive [inhibitor, single point] |  |
| COc1cc(C(=O)NC2CC(C)(C)NC(C)(C)C2)cc(OC)c1OC |  | inactive: 0.427% |
| O=C(Nc1cccc(C(F)(F)F)c1)N(Cc1ccc(Cl)cc1)CC(O)C(F)(F)F (stereo unspecified) | inconclusive [inhibitor, single point] |  |
| CCCCSc1nc2sc3c(c2c(=O)n1-c1ccccc1)CCN(C)C3 | active: 7.31 µM |  |
| CC(NC1=CC(=O)c2cccnc2C1=O)C(O)c1ccccc1 (stereo unspecified) | active: 3.26 µM |  |
| COc1cccc(-c2cnc(C(O)c3cc(C)ccc3C)[nH]2)c1 (stereo unspecified) |  | inactive: -28.3% |
| CC(OC(=O)c1ccc(Cl)nc1)C(=O)NC1(C#N)CCCCC1 (stereo unspecified) |  | inactive: -1.03% |
| COc1ccc2c(c1)CC1c3c(cc4c(c3-2)OCO4)CC[N+]1(C)[O-] (stereo unspecified) | inconclusive [inhibitor, single point] |  |
| O=C(/C=C/c1cccs1)c1ccc(Br)cc1 | inconclusive [inhibitor, single point] |  |
| CCOC(=O)c1nnc(-c2ccccc2)nc1N1CCSCC1 | inconclusive [inhibitor, single point] |  |
| Cc1ccc(SCC(=O)NNC(=O)CNC(=O)c2ccc(Br)cc2)cc1 | inconclusive [inhibitor, single point] |  |
| CCc1c(-c2cccc(OC)c2)ncn1Cc1cccc(-c2ccccc2)c1 | active: 8.2 µM |  |
| Nc1ccc(C(=O)OCc2csc(-c3ccccc3)n2)cc1[N+](=O)[O-] |  | inconclusive: -22.4% [inhibitor] |
| CCC(C)NC(=O)c1[nH]c2cc(OC)ccc2c1Sc1ccc(C)cc1 (stereo unspecified) | inconclusive [inhibitor, single point] |  |
| CCOC(=O)C1CCN(C(=O)c2cc3ccc4ccc(C)[nH]c4c3n2)CC1 | active: 20.6 µM |  |
| Cc1ccc(CSCC(=O)N(C)CC(=O)Nc2ccccc2C(F)(F)F)cc1 | inconclusive [inhibitor, single point] |  |

| Compound | Potency | activity change, negative = growth inhibition |
| --- | --- | --- |
| CCOC(=O)c1cc(-c2ccc(Cl)cc2)nc2c1c(C)nn2CCC#N | inconclusive [inhibitor, partial curve] |  |
| COc1ccc(C=C(C#N)C#N)c(CSc2ccccn2)c1 | inconclusive [inhibitor, partial curve, poor fit] |  |
| COC(=O)c1ccc(-c2cc3onc(-c4ccccc4)c3c(=O)n2C)cc1 | inconclusive [inhibitor, single point] |  |
| COc1ccccc1NS(=O)(=O)c1ccc(C(=O)N2CCCCCC2)cc1 | active: 13 µM |  |
| Cc1cccc(S(=O)(=O)N(C)C[C@@H]2OCc3cnnn3CCCC(=O)N([C@H](C)CO)C[C@@H]2C)c1 |  | inactive: -24.7% |
| C#CCOCCOCCOCCNc1nc(N2CCOCC2)nc(N2CCN(C(=O)[C@H](Cc3cc4ccccc4[nH]3)n3cc([C@@H](N)CC(C)C)nn3)CC2)n1 | inconclusive [inhibitor, single point] |  |
| CC(O)(c1ccc(F)c(F)c1)c1nc(/C=C/c2ccc(C(F)(F)F)cc2)cs1 (stereo unspecified) | inconclusive [inhibitor, partial curve] |  |
| COc1ccc2c(c1)-c1nc(-n3ncc(C(=O)NC[C@@H]4CCCN5CCCC[C@H]45)c3C)ncc1CC2 | active: 9.2 µM |  |
| COc1ccc(-c2nn3c(COc4ccccc4)nnc3s2)cc1OC |  | inactive: -9.98% |
| CCOc1ccc(NC(=O)CC2C(=O)N(c3cccc(C)c3)C(=O)N2Cc2ccco2)cc1 (stereo unspecified) | inconclusive [inhibitor, single point] |  |
| CC(=O)c1ccc(NC(=O)CSc2ccc(-c3sc(C)nc3C)nn2)cc1 | inconclusive [inhibitor, partial curve] |  |
| C=C(C)Cn1c(C)cc(C)c(S(=O)(=O)c2ccccc2C)c1=O | inconclusive [inhibitor, single point] |  |
| N[C@@H](C(=O)N[C@@H]1C(=O)N2C(C(=O)O)=C(Cl)CC[C@H]12)c1ccccc1 |  | inactive: -18.5% |
| CC1(C)CC2CC(C)(CN2C(=O)c2cc(-c3ccc(O)cc3)on2)C1 (stereo unspecified) | inconclusive [inhibitor, single point] |  |
| CC(=O)N1c2ccccc2C(=O)C1N1CCN(c2cc(Cl)ccc2C)CC1 (stereo unspecified) | inconclusive [inhibitor, single point] |  |
| CCOc1ccc(N2C(=O)c3ccccc3NC2(C)CC)cc1 (stereo unspecified) |  | inactive: -35.5% |
| O=C(CSCc1cc(=O)c2ccccc2[nH]1)Nc1cccc(C(F)(F)F)c1 | inconclusive [inhibitor, single point] |  |
| O=C(c1cccs1)N1CCCC(N2CCN(c3cccc(C(F)(F)F)c3)CC2)C1 (stereo unspecified) | inconclusive [inhibitor, single point] |  |
| CCn1nc(NC(=O)COC)c2cc3cc(C)ccc3nc21 |  | inactive: 4.69% |
| CC(=O)NC(C)c1nc2ccccc2n1C(C)C (stereo unspecified) | inconclusive [inhibitor, single point] |  |
| CC1(C(=O)NCc2cccc3ccccc23)CCN1Cc1ccc2ccccc2c1 (stereo unspecified) | active: 18.4 µM |  |
| Cc1noc(C)c1C(=O)Nc1ccc(-c2nnc3n2CCCCC3)cc1 |  | inactive: -6.07% |
| C[C@H]1CN=C(Nc2ccccc2)N1CCC1CCCCC1 | inconclusive [inhibitor, single point] |  |
| Cn1c(NCc2ccccc2)nc2cc(-c3cccc(C(F)(F)F)c3)sc2c1=O | active: 18.4 µM |  |

| Compound | Potency | activity change, negative = growth inhibition |
| --- | --- | --- |
| Cc1ccc(NC(=O)c2ccc(CNS(=O)(=O)c3cccc(C(F)(F)F)c3)cc2)cc1 |  | inactive: -7.6% |
| Cc1cccc(-n2c(SCC(=O)N3CCCC3)nc3n[nH]c(C)c3c2=N)c1 | inconclusive [inhibitor, partial curve] |  |
| O=C(CCn1c(=O)[nH]c2ccsc2c1=O)N1CCN(c2ccc([N+](=O)[O-])cc2)CC1 | inconclusive [inhibitor, single point] |  |
| Cc1ccc2nc(CN3CCN(C(=O)Nc4cccc(C)c4C)CC3)oc2c1 |  | inactive: -4.12% |
| O=c1[nH]c2cc([N+](=O)[O-])cc(Cl)c2c2ccccc12 | inconclusive [inhibitor, single point] |  |
| Cc1ccc(CNC(=O)OC2CC3CC2[C@H]2CCCCN2C3=O)cc1 (stereo partly specified) |  | inactive: -30% |
| CCOC(=O)c1cc(-c2ccc(/C=C3/C(=O)N(c4ccc(C(=O)O)cc4)N=C3C)o2)ccc1Cl | active: 14.6 µM |  |
| COc1ccccc1C(NC(C)=O)c1cc(Cl)c2cccnc2c1O (stereo unspecified) | active: 3.98 µM and active: 2.31 µM |  |
| Cc1ccc(Cn2c(N)c(S(=O)(=O)c3cccs3)c3nc4ccccc4nc32)cc1 | inconclusive [inhibitor, full curve, poor fit] |  |
| COc1cc2c(C(=O)OCCN(C)C)c(CSc3ccccc3)n(C)c2cc1Br | inconclusive [inhibitor, single point] |  |
| CCOC(=O)C1(Cc2ccccc2)CCCN(Cc2cnn(CC)c2)C1 (stereo unspecified) |  | inactive: -7.7% |
| CCOC(=O)/C(=C/c1cn(C)c2ccccc12)NC(=O)c1ccccc1 | inconclusive [inhibitor, single point] |  |
| CS(=O)(=O)N1CCN=C1SCc1cccc(F)c1 |  | inactive: -20.1% |
| O=C1CCN(CCc2ccccc2)CCN1CCSc1ccc(Br)cc1 | inconclusive [inhibitor, single point] |  |
| COc1ccc(C(=O)N2CCc3ccc(NC(=O)c4ccccn4)cc3C2)cc1F | active: 23.1 µM |  |
| CCS(=O)(=O)c1ncc(N(Cc2cccc(F)c2)Cc2ccco2)c(C(=O)Nc2ccccc2Cl)n1 | active: 6.51 µM |  |
| Cc1nn(-c2ccccc2)c2sc(C(=O)O)cc12 |  | inactive: -5.34% |
| COc1ccc(Cc2nc(C(=O)Nc3ccc(F)cc3)cs2)cc1 | inconclusive [inhibitor, single point] |  |
| O=S(=O)(c1ccccc1)N1CCN(S(=O)(=O)c2ccccc2)c2ccccc21 | inconclusive [inhibitor, single point] |  |
| CCOc1cc(/C=C\c2[nH]c(=O)[nH]c(=O)c2[N+](=O)[O-])ccc1OC(C)CC (stereo unspecified) |  | inactive: -5.6% |
| O=C(/C=C/c1ccc(O)cc1)c1ccccc1O | active: 14.6 µM |  |
| CC(NC(=O)c1ccc([N+](=O)[O-])o1)C12CC3CC(CC(C3)C1)C2 (stereo unspecified) | inconclusive [inhibitor, single point] |  |
| CCn1cc(CNC(=O)c2cc(Cl)ccc2OC)c(C)n1 | inconclusive [inhibitor, full curve, poor fit] |  |
